# Where a name gives a salt, the structure may show the parent alone. ± gives the standard deviation of the averaged measurements. Whole data set: some 1,300 compounds, median “normalised cell viability” near 1, cut for the lowest 2% near 0.14. Some of the results follow.
# Test system: V-C8 (BRCA2-deficient hamster cells)
# Experiment: normalised cell viability (fraction of plate median); higher = more viable cells (less toxic)
# Settings: 5 µM
# Outline: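 In two screens, library drugs at 5 μM were given for 3 days (screen 1) or 6 days (screen 2) to hamster V-C8 cells without BRCA2 and V-C8 cells with BRCA2 restored, seeded 24 h earlier in 96-well plates. A resazurin assay gave the cell viability readout, expressed as modified robust per cent of sample against the plate median, with triplicate wells averaged.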
SMILES,normalised cell viability (treatment time: 3 days),normalised cell viability (treatment time: 6 days)
CC(=O)N[C@@H](CS)C(=O)O [Acetylcysteine],1.04 ± 0.049,1.01 ± 0.15
CN(C)CCn1nnnc1SCC1=C(C(=O)O)N2C(=O)[C@@H](NC(=O)Cc3csc(N)n3)[C@H]2SC1 [Cefotiam hydrochloride],0.996 ± 0.028,1.12 ± 0.093
CNC[C@H](O)[C@@H](O)[C@H](O)[C@H](O)CO [Meglumine],0.951 ± 0.02,1 ± 0.027
Nc1ccc(S(=O)(=O)Nc2cnc3ccccc3n2)cc1 [Sulfaquinoxaline sodium salt],1.04 ± 0.024,1.11 ± 0.17
NCCCC(O)(P(=O)(O)O)P(=O)(O)O [Alendronate sodium],0.709 ± 0.1,0.515 ± 0.033
NC(=O)OCC(COC(N)=O)c1ccccc1 [Felbamate],1.07 ± 0.023,1.19 ± 0.044
C[C@H]1NC(=O)NC1=O [Methylhydantoin-5-(D)],0.968 ± 0.032,0.954 ± 0.077
Cc1ccnc(NS(=O)(=O)c2ccc(N)cc2)n1 [Sulfamerazine],1.05 ± 0.017,1.01 ± 0.013
N=C(N)NCc1cccc(I)c1 [Iobenguane sulfate],1.043 ± 0.0067,1.052 ± 0.0059
CC(C)n1c(/C=C/C(O)CC(O)CC(=O)O)c(-c2ccc(F)cc2)c2ccccc21 (stereo unspecified) [Fluvastatin sodium salt],0.121 ± 0.0047,0.156 ± 0.004
CC(=O)Oc1ccccc1C(=O)Oc1ccccc1C(=O)O [Acetylsalicylsalicylic acid],1.06 ± 0.02,1.04 ± 0.078
CCCCNc1cc(C(=O)O)cc(S(N)(=O)=O)c1Oc1ccccc1 [Bumetanide],1.06 ± 0.081,1.05 ± 0.065
CNC(=O)c1c(I)c(C(=O)NCC(=O)Nc2c(I)c(C(=O)O)c(I)c(C(=O)NCCO)c2I)c(I)c(N(C)C(C)=O)c1I [Ioxaglic acid],1.27 ± 0.34,1.03 ± 0.011
CC(C)NC[C@H](O)COc1cccc2ccccc12 [(S)-propranolol hydrochloride],1.06 ± 0.02,1.03 ± 0.011
OCCN1CCN(CCCN2c3ccccc3C=Cc3ccccc32)CC1 [Opipramol dihydrochloride],1.05 ± 0.028,1.02 ± 0.027
CC(=O)CCCCn1c(=O)c2c(ncn2C)n(C)c1=O [Pentoxifylline],1.17 ± 0.067,1.05 ± 0.027
CN1C(=O)OC(C)(C)C1=O [Trimethadione],1.22 ± 0.09,1.06 ± 0.05

SMILES,normalised cell viability (treatment time: 3 days),normalised cell viability (treatment time: 6 days)
CN(C/C=C/c1ccccc1)Cc1cccc2ccccc12 [Naftifine hydrochloride],0.199 ± 0.019,0.219 ± 0.0077
O=C(NCCN1CCOCC1)c1ccc(Cl)cc1 [Moclobemide],1.06 ± 0.044,1.03 ± 0.037
CN(C)CCCSC(=N)N [Dimaprit dihydrochloride],1.02 ± 0.029,0.988 ± 0.011
C[C@H](Cc1cc2c(c(C(N)=O)c1)N(CCCO)CC2)NCCOc1ccccc1OCC(F)(F)F [Silodosin],0.935 ± 0.017,0.949 ± 0.096
Cc1onc(-c2c(F)cccc2Cl)c1C(=O)N[C@@H]1C(=O)N2[C@@H]1SC(C)(C)[C@@H]2C(=O)O [Flucloxacillin sodium],0.997 ± 0.051,1.06 ± 0.095
CCN1CCCC(OC(=O)C(c2ccccc2)c2ccccc2)C1 (stereo unspecified) [Piperidolate hydrochloride],1.18 ± 0.22,0.998 ± 0.039
NS(=O)(=O)c1cc(Cl)c(Cl)c(S(N)(=O)=O)c1 [Dichlorphenamide],1.09 ± 0.038,0.984 ± 0.06
CCCCCNC(=N)N/N=C/c1c[nH]c2ccc(OC)cc12 [Tegaserod maleate],0.124 ± 0.011,0.164 ± 0.016
C[C@@H]1C[C@H]2[C@@H]3C[C@H](F)C4=CC(=O)C=C[C@]4(C)[C@@]3(Cl)[C@@H](O)C[C@]2(C)[C@H]1C(=O)COC(=O)C(C)(C)C [Clocortolone pivalate],0.897 ± 0.043,0.913 ± 0.038
CNCCCC12CCC(c3ccccc31)c1ccccc12 [Maprotiline hydrochloride],0.987 ± 0.015,0.8 ± 0.022
OC(c1cc(C(F)(F)F)nc2c(C(F)(F)F)cccc12)C1CCCCN1 (stereo unspecified) [Mefloquine hydrochloride],0.153 ± 0.016,0.708 ± 0.074
CCN(CC)C(=O)/C(C#N)=C/c1cc(O)c(O)c([N+](=O)[O-])c1 [Entacapone],0.957 ± 0.024,1.06 ± 0.059
C[C@]12C=CC(=O)C=C1CC[C@H]1[C@@H]3C[C@@H](O)[C@](O)(C(=O)CO)[C@@]3(C)C[C@H](O)[C@@]12F [Triamcinolone],1.06 ± 0.046,0.979 ± 0.038
CC1(C)O[C@@H]2C[C@H]3[C@@H]4CCC5=CC(=O)CC[C@]5(C)[C@@]4(F)[C@@H](O)C[C@]3(C)[C@]2(C(=O)CCl)O1 [Halcinonide],0.953 ± 0.023,0.913 ± 0.052
CC(=O)O[C@H]1C[C@@H]2CC[C@@H]3[C@H](CC[C@@]4(C)[C@H]3C[C@H]([N+]3(C)CCCCC3)[C@@H]4OC(C)=O)[C@@]2(C)C[C@@H]1N1CCCCC1 [Vecuronium bromide],1.01 ± 0.047,1.04 ± 0.036
C[C@@H](O)[C@H]1C(=O)N2C(C(=O)O)=C(S[C@@H]3CN[C@H](C(=O)N(C)C)C3)[C@H](C)[C@H]12 [Meropenem],0.978 ± 0.12,1.17 ± 0.2

# Source: the supplement of paper PMC6609913
